27 variants from the RNAGym collection of RNA variant scans (doi:10.1101/gad.245936.114) can be followed below.

Variants at the background level are over-represented here.

B1: tRNA (parent)
chain: CUCUCGGUAGCCAAGUUGGUUUAAGGCGCAAGACUUUAAUUUAUCACUACGAAAUCUUGAGAUCGGGCGUUCGACUCGCCCCCGGGAGAUUUUUUCCUCGAGCAA

In the data set the parent is B1. In words: nonsense suppression (GFP-seq) (ratio to wild type); higher = more function; SUP4oc tRNA, yeast GFP reporter sort-seq. In outline: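 Each variant's nonsense suppression (GFPSEQ) is a cell-share-weighted bin median GFP/RFP relative to the unmutated parent tRNA. Yeast with genome-integrated tRNA variants from a ~3% random-mutation library, a galactose-driven GFP ochre reporter and RFP were grown in raffinose/galactose medium with 80 mg/L adenine, then sorted into GFP/RFP bins for Illumina sequencing. Variants needed ≥100 reads and ≥30 cells.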
Regarding CUCUCGGUAGCCCAGUUGGUUUAAGGCGCAAGACUUUAAUUUAUCACUACGAAUUCCUGAGAUCGGGCCUUCGACUCGCCCCCGGGAGAUUUUUUCCUCGAGCAA, the nonsense suppression was at most 0.026.

CUCUCGGUAGCCAGGCUGGUUUAAGGCGCAAGACUUUAAUUUAUCACUACGAAAUCUUGAGAUCGGGCGUUCGACUCGCCCCCGGGAGAUUUUUUCCUCGAGCAA: the nonsense suppression was at most 0.026.

Consider CUCUCGGUAGCCAAGUUGGUUUAAGGCGCAAAACUUUAAUUUAUCACUACGAAACCUUGAGAUCGGGCGUUCGACUCGCCCCCGGGAGAUUUUUUCCUCGAGCAA, for which the nonsense suppression is at most 0.026.

In the case of UCCUCGGUAGCCAAGUUGGUUUAAGGCGCAAGACUUUAAUUUAUCACUACGAAAUCUUGAGGUGGGGCGUUCAACUCGCCCCCGGGAGAUUUUUUCCUCGAGCAA, the nonsense suppression is at most 0.026.

In the case of CUCUCGGUAGCCAAGUUGGUUUAAGGCGCAAGACUUUAAUUUAUCACUACGAAAUCUUGGGAUCGUGCGUUCGACUCGCCCCCGGGAGAUUUUUUCCUCGAGCAA, the nonsense suppression is 0.0286.

Regarding CUCUCGGUCGCCCAGUUGGUUUAAGGCGCAAGACUUUAAUUUAUCACUACGAAAUCUUGAGAUCGGGCGUUCGACUCGCCCCCGGGCGAUUUUUUCCUCGAGCAA, the nonsense suppression was at most 0.026.

Take CUCUCGGUAGCCAAGUUGGUUUAAGGCGCAAGACUUUAAUUUAUCACUACGAAAUCUUGGGAUCGGGCGUUCGACUCGCCCCCGCGAGAUUUUUUCCUCGAGCAA: the nonsense suppression amounted to 0.119.

Take CUCUCGGUAGCCAAGUUGGUUUAAGGGGCAAGACUUUAAUUUAUCACUACGAAAUCUUGAGAUCGGGCGUUCGACUGGCCCCCGGGAGAUUUUUUCCUCGAGCAA: the nonsense suppression was at most 0.026.

In the case of CUCUCGGUAGCCAAGUUGGUUUAAGGCGCAAGACUUUAAUUUAUCACUACGAAAUCUUGAGGUCGGGCGAUCGACUCGCCCCCGGGAGAUUUUUUCCUCGAGCAA, the nonsense suppression was at most 0.026.

Turning to CUCUCGGUGGCCAAGUUUGUUUAAGGCGCAAGACUUUAAUUUAUCACUACGAAAUCUUGAGAUCGGGCGUUCGACUCGCCCCCGGGAGAUUUUUUCCUCGAGCAA, the nonsense suppression is at most 0.026.

For the variant CUCUCGGUCGCCAAGUGGGUUUAAGGCGCAAGAUUUUAAUUUAUCACUACGAAAUCUUGAGAUCGGGCGUUCGACUGGCCCCGGGGAGAUUUUUUCCUCGAGCAA, the nonsense suppression was at most 0.026.

For the variant CUCUCGGUAGCCAAGUUGGUUUAAGGCGCAAGGCUUUAAUUUAUCACUACGAAAUCUUGAGAUCGGGCGUUCGCCUCGCCCCCGAGAGAUUUUUUCCUCGAGCAA, the nonsense suppression was at most 0.026.

As to UUCUCGGUAGCCAAGUUGGUUUUAGGCGCAAGGCUUUAAUUUAUCACUACGAAAUCUUGAGAUCGGGCGUUCGACCCGCCCCCGGGAGAUUUUUUCCUCGAGCAA, the nonsense suppression was at most 0.026.

With CUCUCGGUAGCCCAGUUGGUUUAAGGCGCAAGUCUUUAAUUUAUCACUACGAAAUCUUGAGACCGGGCGUUCGACUCGCCCCCGGGAGAUUUUUUCCUCGAGCAA, the nonsense suppression is at most 0.026.

Take CUCUCGGUAGCCAAGUUGGUUUAAGGCGCAAGACUUUAAUUUAUCACUACGAAAUCUUGAAUUCGGGCGUUCGACUCGCCCCCGGGAGCUUUUUUCCUCGAGCAA: the nonsense suppression is at most 0.026.

As for CUCUCGGUAGCCAAGUUGGUUUAAGGCGCAAGACUUUAAUUUAUCACUACGAAAUCUUGAAAUCGGGCGUUCGACUCGCCCCCGGGAAAUUUUUUCCUCGAGCAA, the nonsense suppression was at most 0.026.

For the variant CUCUCGUUAGCCAAGUUGGUUAAAGGCGCAAGAUUUUAAUUUAUCACUACGAAAUCGUGAGACCGGGCGUUCGACUCGCCCCCGGGAGAUUUUUUCCUCGAGCAA, the nonsense suppression is at most 0.026.

Regarding CUCUCGGUAGCCAAGUUGGUUUACGGCGCAAGAGUUUAAUUUAUCACUACGAAAUUUUGAGAUCGGGCGGUCGACUCGCCCCCGGGAGAUUUUUUCCUCGAGCAA, the nonsense suppression was at most 0.026.

In the case of CUCUCGGUACCCAAGUUGGUUUAAGGCGCAAGUCUUUAAUUUAUCACUACGAAAUCUUGAGAUCGGGCGUUCGACUCGCCCCCGGGAGAUUUUUUCCUCGAGCAA, the nonsense suppression is at most 0.026.

Take CUCUCGGUAGCCAAGUUGGUUUAAGGCGCAAGACUUUAAUUUAUCACUACGAAAUCUUGAGAUCGGGCGUACGACUCGCCUCCGGGAGAUUUUUUCCUCGAGCAA: the nonsense suppression is at most 0.026.

Take CUCUCGGUAGCCAAGUUCGUUUAAGGCGCAAGACUUUAAUUUAUCACUACGAAAUCUUGAGAUCGGGCAUUCGACUCGCCCCCGGGCGAUUUUUUCCUCGAGCAA: the nonsense suppression was at most 0.026.

Regarding AUCUCGGUAGCCAAGUUGGUUUACGGCGCAAGACUUUAAUUUAUCACUACGAAAUCUUGAGAUCGGGCGUUCGACUCGCCCCCGGGAGAUUUUUUCCUCGAGCAA, the nonsense suppression is at most 0.026.

Take CUCUCGGUAGCCAAGUUGGUUUAAGGGGCUAGACUUUAAUUUAUCACUACGAAAUCUUGAGAUCGGGCGUUCGACUCGCUCCCGGGAGAUUUUUUCCUCGAGCAA: the nonsense suppression was at most 0.026.

Take CUCUCGGUAGCCAAGUUGGUUUAAGGCUCAAGACUUUAAUUUAUCACUACGAAAUCUUGAGAUCGGGUGUUCGACUCGCCCCCGGGAGAUUUUUUCCUCGAGCAA: the nonsense suppression is at most 0.026.

For GUCUCGGUAGCCAAGUUGGUUUAAGGCGCAAGACUUUAAUUUAUCACUACGAACUCUUGAGAUCGGGCGUUCGACUCGCCCCCGGGAGAUUUUUUCCUCGAGCAA, the nonsense suppression came to 0.0309.

In the case of CUCUCGGUAGCCAAGUUGGUUUAAGGCGCAAGACUUUAAUUUAUCACUACGAAAUAUUGUGAUCGGGCAUUCGACUCGCCCCCGGGAGAUUUUUUCCUCGAGCAA, the nonsense suppression is at most 0.026.

CUCUCGGUAGCGAAGUUGGUUUAAGGCGCAAGACUUUAAUUUAUCACUACGAAAACUUGAGAUCGGGCGUUCGACUCGCCCCCGGGAGAUUUUUUCCUCGAGCAA: the nonsense suppression is at most 0.026.
